Measurements published in PubChem BioAssay AID686979 (National Center for Advancing Translational Sciences (NCATS), 2013).
About 50,000 (12%) of roughly 420,000 compounds were called active. Inconclusive results, whose numbers are uncertain, are shown with a selection of clear calls. Calls come from the whole dose curve; as a rule, active = well fitted inhibition curve with a large enough effect; inconclusive = small, poorly fitted or top-dose-only effect; inactive = flat fitted curve, though single readings scatter. No potency is given beside an inconclusive call; the fits are too rough.

assay: qHTS for Inhibitors of human tyrosyl-DNA phosphodiesterase 1 (TDP1): qHTS in cells in presence of CPT; conditions: chicken DT40 Tdp1-/-;hTDP1 cells + 20 nM CPT, ATP luminescence, 48 h; series mostly up to 46.2 µM; note: nearly all actives have a fitted effect of over 55% in size
Procedure, shortened: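 Cell growth measured by CellTiter-Glo luminescence after a minimum 48 h, 37 C compound exposure with 20 nM CPT in Tdp1-knockout DT40 cells stably expressing hTDP1, seeded 400/well; qHTS titration format.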
Potency is the fitted concentration of half-maximal effect; tags give direction and shape of the fitted curve.

SMILES | Potency
Cc1nc(C(=O)N2CCCC(N3CCN(c4ccc(F)cc4)CC3)C2)cs1 (stereo not given) | active: 20.6 µM
Cc1ccc(SCCNC(=O)c2ccc(C)c([N+](=O)[O-])c2)cc1 | inconclusive [inhibitor, partial curve]
COc1cccc(NC(=O)C2CCCN2S(=O)(=O)c2ccc3c(c2)C(C)(C)C(=O)N3C)c1 (stereo not given) | inactive
CC(C)c1nc(NCCO)c(C#N)c2c1CCCC2 | inactive
Cc1ccc(S(=O)(=O)CCC(=O)OCC(=O)NC(C)c2ccc(F)cc2)cc1 (stereo not given) | inactive
Cc1ccc2oc3c(c(=O)c2c1)C(c1cccc(O)c1)N(Cc1ccccc1Cl)C3=O (stereo not given) | inconclusive [inhibitor, single point]
COc1ccc(C(=O)NCc2cc3ccccc3n2C)cc1 | inactive
CCOC(=O)c1c(C)nc2c(c1-c1cc(OC)ccc1OC)C(=O)c1ccccc1-2 | inconclusive [inhibitor, single point]
N#C/C(=C\c1ccc(-c2ccc([N+](=O)[O-])cc2)o1)C(=O)Nc1nc(-c2cccs2)cs1 | inconclusive [inhibitor, single point]
C/C(=N\NC(=S)NC(C)C)c1ccc(-n2ccnc2)cc1 | active: 3.26 µM
COc1ccc(N2CCN(C(=O)NCc3noc4ccccc34)CC2)cc1 | inconclusive [inhibitor, single point]
O=C(O)C(F)(F)S(=O)(=O)O | inactive
COC(=O)C(Cc1c[nH]c2ccccc12)NC(=O)CCNC(=O)c1ccco1 (stereo not given) | inactive
COC(=O)c1ccccc1NC(=O)c1cn(-c2ccc(C)c(C)c2)c(=O)c2ccccc12 | inconclusive [inhibitor, single point]
CCCN1CNc2c(c(=O)[nH]c(=S)n2CCc2cccc(C)c2)C1 | inconclusive [inhibitor, single point]
CCN1CCN(c2sc(S(C)(=O)=O)nc2S(=O)(=O)c2ccc(Cl)cc2)CC1 | inconclusive [inhibitor, single point]
COC(=O)c1ccc(C(=O)OC)c(NC(=O)CSCC(=O)O)c1 | inactive
Cc1ccc(S(=O)(=O)N2CCN(c3nc(-c4cscn4)nc4ccccc34)CC2)cc1 | inconclusive [inhibitor, single point]
CCOc1ccc(/C=C/c2nc(C#N)c(Nc3ccc(OC)cc3)o2)cc1 | active: 20.6 µM
CCCOc1ccc(CN(C(=O)c2nc(SC(C)C)ncc2Cl)C2CCS(=O)(=O)C2)cc1 (stereo not given) | inconclusive [inhibitor, single point]
